Measurements: PubChem BioAssay AID1794842 (National Center for Advancing Translational Sciences (NCATS), 2023)
In all, about 2,800 compounds went through this assay and fewer than 10 were called active. Calls come from the whole dose curve; as a rule, active = well fitted curve in the direction sought with a large enough effect; inconclusive = small, poorly fitted or top-dose-only effect, or another doubt; inactive = no such curve, though single readings can be large or run the other way. The list shows a part of the results.

molecular target: Metallo-beta-lactamase type 2 (Klebsiella pneumoniae) (UniProt C7C422); assay: qHTS to identify inhibitors of the New Delhi Metallo-beta-lactamase (NDM): Meropenem screen against the machine-based learning selections.; note: % of control where 0% means no effect; conditions: Purified NDM-1, meropenem hydrolysis, absorbance 300 nm; at 38.4 µM (top of the series) unless noted
How it was run: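 NDM-1 (2 nM final) in 50 mM HEPES pH 7.0, 1 uM Zn2SO4, 0.01% Tween20 was preincubated with compounds for >30 min. Nitrocefin (16.7 uM final) was read at 485 nm after 15 min, and meropenem (50 uM final) at 300 nm after 30 min.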

Sequence of UniProt C7C422 (C7C422 whole entry, looked up): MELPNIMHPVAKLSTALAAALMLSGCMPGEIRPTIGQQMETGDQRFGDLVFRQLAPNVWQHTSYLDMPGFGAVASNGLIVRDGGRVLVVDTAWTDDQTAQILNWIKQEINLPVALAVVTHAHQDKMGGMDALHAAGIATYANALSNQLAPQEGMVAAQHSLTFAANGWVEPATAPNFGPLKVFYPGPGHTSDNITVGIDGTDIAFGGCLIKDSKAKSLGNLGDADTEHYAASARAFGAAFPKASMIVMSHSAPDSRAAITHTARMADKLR

Activity change, negative = inhibition, inactive:
CC1=C[C@@H](CNC(=O)COCC(=O)O)[C@H](C(C)C)C[C@H]1Cc1nc2ccccc2n1C 48.9% [at 57.5 µM]
O=C(c1cc(-c2ccncc2)n[nH]1)N1CCC2(CC1)Nc1ccccc1NC2=O -3.79%
N#Cc1cccc(CN2CCOC[C@H]2c2ncc(-c3ccccc3)[nH]2)c1 0.887% [at 57.5 µM]
CN1CCCn2nc(C(=O)NC34CC5CC(CC(C5)C3)C4)cc2C1 0.0618%
COCCCNc1ccc(C(=O)N2CCC(CN3CCCC3=O)CC2)cn1 -1.44%
Cc1[nH]c2c(c1C(=O)N1CCCC(CCc3ccc(F)cc3)C1)C(=O)CCC2 (stereo not given) 2.19%
Cc1ccc(NC(=O)N[C@@H]2C=C(C(=O)N[C@H](CC(C)C)C(N)=O)C[C@@H](O)[C@@H]2O)cc1 1.51% [at 57.5 µM]
CN1[C@@H](CCC(=O)N2CCOCC2)CNC(=O)[C@@H]2[C@H]1CCN2Cc1cccc(OC(F)(F)F)c1 2.69%
Cc1ccc(C(c2cccnc2)n2cc(-c3cncnc3)nn2)cc1C (stereo not given) 1.32%
CCC1(N2CCN(C(=O)CCc3c[nH]c4ccccc34)CC2)CCN(C(=O)NC)C1 (stereo not given) 1.71%
COCc1noc(CC2CCOC3(CCN(C(=O)NC4CCCCC4)CC3)C2)n1 (stereo not given) 4.67%
CCN(C(=O)Cn1nc2n(c1=O)CCCCC2)c1ccccc1 0.922%
Cc1cccc(CC(C)NC(=O)c2ccc3nc(Cc4ccccc4F)oc3c2)n1 (stereo not given) -0.964%
COCC(=O)Nc1nc2c(s1)C[C@@H]1[C@](C)(CO)[C@H](O)CC[C@@]1(C)[C@@H]2CC(=O)NCc1cccnc1 2.68%
c1coc(CN[C@H]2CO[C@H]3[C@@H]2OC[C@@H]3n2nnnc2Oc2ccc(-n3cncn3)cc2)c1 0.401%
COCCNC(=O)CC[C@]12CC[C@](C)(O)C[C@H]1C(C)(C)C[C@@H]2NC(=O)c1ccc(C(F)(F)F)cc1 0.156%
O=C(NCc1ccc(F)cc1)c1cc(-c2ccc[nH]2)n[nH]1 1.45%
Cc1noc(-c2ccc(OC3CN(C(=O)CCCc4ccccc4)C3)cc2)n1 0.774%
COc1ccc(C(=O)NC2CCN(c3cc(-c4ccc(Cl)cc4)[nH]n3)C2)cc1OC (stereo not given) -2.25%
O=C(c1ccccc1)N1CCN2C(=O)N(Cc3ccccc3)C(=O)[C@H]2C1 -2.85% [at 57.5 µM]
COCc1nc(-c2ccc(OC3CCN(S(=O)(=O)c4c(C)noc4C)C3)cc2)no1 (stereo not given) -0.642%
Cn1ccc2c(C(=O)NCCc3cnc[nH]3)nc(-c3cccnc3)cc21 25.1% [at 57.5 µM]
COc1ccc(CN2C[C@@H](F)[C@@H](OCc3nc4ccc(C)cc4[nH]3)C2)cc1 -0.338% [at 57.5 µM]
CN1CCCC1c1nc(C2CN(C(=O)CCCc3c[nH]c4ccccc34)C2)no1 (stereo not given) 1.34%
COc1ccc(CCC(=O)N2CCCN(c3cc(-c4ccc(Br)cc4)[nH]n3)CC2)cc1 -0.568%
COc1ccc(CN2C(=O)CO[C@H](c3ccc(NC(=O)NC(C)(C)C)cc3)[C@H]2CO)cc1 -1.69%
COc1ccccc1CCC(=O)NCc1nnc2ccc(-c3ccc(C)cc3)nn12 -1.43%
C[C@@H](NC(=O)c1cccs1)c1onc(-c2ccc(F)cc2)c1C(=O)O 3.33% [at 57.5 µM]
Cc1ccc(C2(O)CCN(C(=O)[C@@H](N)Cc3cnc[nH]3)CC2)nc1 15.7%
CC[C@H]1CN(S(=O)(=O)c2c(C)noc2C)CC[C@H]1CC(=O)NCc1ccco1 1.93% [at 57.5 µM]
F[C@@H]1CN(C2CCC2)C[C@@H]1OCc1nc2ncccc2[nH]1 1.21% [at 76.7 µM]
O=C(Nc1ccc(C2(C(=O)NCc3ccco3)CCCCC2)cc1)C1CC1 0.56%
NC(=O)c1cccnc1N1CCC2(CCCN(Cc3cccc(F)c3F)C2)C1 (stereo not given) 16.7%
CN1Cc2ccc(Nc3ccccc3)nc2C(C)(C(=O)NCCc2cnc[nH]2)C1 (stereo not given) 7.12% [at 57.5 µM]
C=CCO[C@@H]1C[C@H]2C(=O)Nc3ccc(-c4ccc(F)cc4F)cc3C(=O)N2C1 4.07% [at 57.5 µM]
Nc1nc(C2CC(O)C2)cc(N2CCC(CCN3CCCC3=O)CC2)n1 (stereo not given) 3.01%
C[C@H](O)c1c(-c2ccc(F)cc2)noc1C(=O)N1CCC1 0.552% [at 76.7 µM]
COc1ccc(-c2[nH]nc3ncc(C(=O)NCCc4ccccc4)nc23)c(C)c1 3.33% [at 57.5 µM]
O=C(CC[C@H]1NC(=O)c2ccccc2NC1=O)Nc1nc2c(s1)CCC2 1.76%
Cc1nn(C)c2ncc(C(=O)O)c(NC3CC(c4cc(=O)[nH]cn4)C3)c12 (stereo not given) 7.09%
